Laboratory results published in patent US11992011B2, “Compounds for controlling plant pathogens” (VIB VZW, priority 2017, dated 2024).

System: OsC4H
Assay: qRT-PCR in rice roots, OsC4H (Example 19)
Details: fourteen-day old rice cv. Bomba; treated foliarly twenty-four and three hours prior to harvest with 100 μM

| SMILES | increase of C4H expression in the root system |
| --- | --- |
| O=C(O)/C=C/c1ccc2c(c1)OCO2 [MDCA, 3,4-methylenedioxycinnamic acid] | three-fold |
| O=C(O)c1ccc2c(c1)OCO2 [PA, Piperonylic acid] | ten-fold |
